The campaign covered roughly 410,000 compounds. About 5,000 (1.2%) were called active. Inconclusive results, whose numbers are uncertain, are shown with a selection of clear calls. Calls come from the whole dose curve; as a rule, active = well fitted inhibition curve with a large enough effect; inconclusive = small, poorly fitted or top-dose-only effect; inactive = no such curve, though single readings can be large or run the other way. Potencies of inconclusive entries are doubtful fits and often do not repeat.
Assay: qHTS for Inhibitors of TGF-b; note: nearly all actives have a fitted effect of over 65% in size
Conditions: HepG2 CAGA-GFP TGF-b/SMAD3 reporter, GFP fluorescence, 18 h, TGF-beta stimulated, 500 pg/mL final; series mostly up to 46.1 µM
Procedure, shortened: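 Using HEPG2 CAGA-GFP reporter cells at 1000 cells/well, we pinned test compounds, stimulated with recombinant TGF-beta (500 pg/mL final) and measured total well GFP after 18 h.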
Potency is the fitted concentration of half-maximal effect; tags give direction and shape of the fitted curve.

**Q.** Which Potency does the source give for `Cc1ccc(C2CC(=O)Nc3c2c(C)nn3-c2nc(C)cc(C)n2)c(C)c1` (centres undefined) here?
**A.** inactive

**Q.** For `CC(C)C(NS(=O)(=O)c1cccc2nsnc12)C(=O)Nc1nc2ccc(Cl)cc2s1` (centres undefined), which Potency is on record?
**A.** inconclusive: 15.8 µM [inhibitor, partial curve, poor fit]

**Q.** For `COCCn1c(SCc2nc3scc(-c4ccc(Cl)cc4)c3c(=O)[nH]2)nnc1-c1cccc(C)c1`, which Potency is on record?
**A.** active: 10 µM

**Q.** Which Potency does the source give for `O=C(NCC1CCCCC1)C1(CC2CC(c3cccc(Br)c3)=NO2)CCNCC1` (centres undefined) here?
**A.** inconclusive: 12.6 µM [inhibitor, partial curve, poor fit]

**Q.** For `C/C(O)=C(/C#N)c1nc2ccccc2[nH]1`, which Potency is on record?
**A.** inactive

**Q.** For `COc1ccccc1OCC(=O)NNC(=O)C1CCN(c2ncnc3sc(C)c(C)c23)CC1`, which Potency is on record?
**A.** inconclusive: 10 µM [inhibitor, partial curve]

**Q.** Which Potency does the source give for `CC(C)(C)S(=O)(=O)N1C[C@H]2C(=CC[C@@H]3C(=O)N(c4ccccc4)C(=O)[C@@H]32)[C@H]1CCO` here?
**A.** inactive

**Q.** Which Potency does the source give for `C/C(=N\NC(=O)c1ccco1)c1ccc(NC(=O)C(F)(F)F)cc1` here?
**A.** inactive

**Q.** For `COc1cc2c(cc1OC)C(COc1cc(C)cc(C)c1)N(C(=O)C(C)(C)C)CC2` (centres undefined), which Potency is on record?
**A.** inconclusive: 35.5 µM [inhibitor, single point]

**Q.** With `Cc1cc(NC(=O)c2ccc(C#N)cc2)on1` as the compound, how does the Potency read?
**A.** inconclusive: 6.31 µM [inhibitor, single point]

**Q.** Which Potency does the source give for `CC(=O)n1cc([C@@H]2C=C(C(=O)Nc3ccccc3)O[C@H](OCc3ccc(CO)cc3)C2)c2ccccc21` here?
**A.** inconclusive: 0.282 µM [inhibitor, full curve, poor fit]

**Q.** With `O=C(NC1CC1)C1=C[C@@H](C2CCCCC2)C[C@@H](OCc2ccc(CO)cc2)O1` as the compound, how does the Potency read?
**A.** inconclusive: 1.12 µM [inhibitor, partial curve]

**Q.** For `CCOC(=O)C1=C(c2ccccc2)OC(N)=C(C#N)C1c1cccs1` (centres undefined), which Potency is on record?
**A.** inactive

**Q.** For `COc1ccc(Cc2nc3ccccc3n2CC(=O)N/N=C/c2ccc(C)cc2O)cc1OC`, which Potency is on record?
**A.** inconclusive: 5.62 µM [inhibitor, single point]

**Q.** For `COc1ccccc1C(c1nnnn1CCc1ccccc1)N1CCCCCC1` (centres undefined), which Potency is on record?
**A.** inconclusive: 35.5 µM [inhibitor, single point]

**Q.** With `Cc1nn(C)c(C)c1CNC(=O)c1nn2c(c1Cl)NC(c1cccs1)CC2C(F)(F)F` (centres undefined) as the compound, how does the Potency read?
**A.** inconclusive: 7.08 µM [inhibitor, partial curve]

**Q.** Which Potency does the source give for `CCCCNC(=O)C1C2C=CC3(CN(Cc4ccccc4Cl)C(=O)C13)O2` (centres undefined) here?
**A.** inconclusive: 0.112 µM [inhibitor, full curve, poor fit]

**Q.** For `COc1ccc(S(=O)(=O)Nc2ccc(S(=O)(=O)N3CCOCC3)cc2)cc1C`, which Potency is on record?
**A.** inconclusive: 28.2 µM [inhibitor, single point]

**Q.** Which Potency does the source give for `CCN(CC)CCn1nc(C)nc1-c1ccccc1O` here?
**A.** inactive

**Q.** Which Potency does the source give for `ClC(=C\c1ccccc1)/C=N/N1CCN(c2ccccn2)CC1` here?
**A.** inactive

**Q.** For `Cc1ccc(S(=O)(=O)CC(=O)Nc2ccccn2)cc1`, which Potency is on record?
**A.** inactive

**Q.** Which Potency does the source give for `COC(=O)c1cc(NS(=O)(=O)c2ccc(N3CCC(C)CC3)c([N+](=O)[O-])c2)cc(C(=O)OC)c1` here?
**A.** inconclusive: 31.6 µM [inhibitor, single point]

**Q.** Which Potency does the source give for `CCn1c(=O)c([N+](=O)[O-])c(Cl)c2ccccc21` here?
**A.** inconclusive: 7.08 µM [inhibitor, partial curve, poor fit]

**Q.** For `Cc1cc(C)c2nc(N3CCCN(C(=O)c4ccco4)CC3)c(C#N)cc2c1`, which Potency is on record?
**A.** inactive

**Q.** With `Oc1ccc(Br)cc1-c1nc2cnccn2c1NC1CCCCC1` as the compound, how does the Potency read?
**A.** inconclusive: 14.1 µM [inhibitor, single point]

**Q.** For `Cc1ccc(NN2C(=O)C=C(c3ccc(Cl)cc3)C2=O)cc1`, which Potency is on record?
**A.** inconclusive: 35.5 µM [inhibitor, single point]

**Q.** Which Potency does the source give for `N=c1ccn(Cc2cccc(Cl)c2)cc1` here?
**A.** inconclusive: 17.8 µM [inhibitor, single point]

**Q.** With `CC(=O)Nc1ccc(N=c2cc([N+](=O)[O-])cc(Cl)n2O)cc1` as the compound, how does the Potency read?
**A.** inconclusive: 35.5 µM [inhibitor, single point]

**Q.** Which Potency does the source give for `N#CC1=C(S)N(c2ccccc2)C(c2ccc(-c3cccc(Cl)c3)o2)NC1=O` (centres undefined) here?
**A.** inconclusive: 35.5 µM [inhibitor, single point]

**Q.** For `Cc1cc(C)cc(NC(=O)c2oc3ccccc3c2COc2ccccc2)c1`, which Potency is on record?
**A.** inactive

**Q.** With `COc1ccc(Cl)cc1NC(=O)CSc1nc(N2CCCCC2)nc(N2CCCCC2)n1` as the compound, how does the Potency read?
**A.** inconclusive: 6.31 µM [inhibitor, single point]

**Q.** Which Potency does the source give for `Cc1cccc2sc(NC(=O)CNS(=O)(=O)c3ccc(Br)s3)nc12` here?
**A.** inconclusive: 22.4 µM [inhibitor, single point]

**Q.** Which Potency does the source give for `Cc1ccc(C)c(NC(=O)c2cnc(N3CCCC3)nc2C)c1` here?
**A.** inactive

**Q.** With `CCOc1ccc2c(ccc(/C=C/c3cc(C)c4cccnc4c3O)[n+]2C)c1` as the compound, how does the Potency read?
**A.** active: 7.08 µM

**Q.** With `COc1ccc(S(=O)(=O)Nc2ccc3c(c2)C(=O)N([C@@H](C)CO)C[C@@H](C)[C@H](CN(C)S(=O)(=O)c2ccc(F)cc2)OCCCC[C@H](C)O3)cc1` as the compound, how does the Potency read?
**A.** inactive

**Q.** Which Potency does the source give for `CCC(=O)N1CCCc2cc(S(=O)(=O)N3CCC(C(=O)NC4CCC(C)CC4)CC3)ccc21` (centres undefined) here?
**A.** inconclusive: 3.16 µM [inhibitor, single point]

**Q.** For `CNc1ccc(/C=C2\COc3ccccc3C2=O)cc1[N+](=O)[O-]`, which Potency is on record?
**A.** inactive

**Q.** For `CCOc1ccccc1C(=O)Nc1cccc(-c2nc3ccccc3s2)c1`, which Potency is on record?
**A.** inactive

**Q.** For `Cc1ccnc(Sc2ccc([N+](=O)[O-])cc2[N+](=O)[O-])n1`, which Potency is on record?
**A.** inconclusive: 7.08 µM [inhibitor, partial curve, poor fit]

**Q.** For `COc1cccc(CN2CCN(CC(=O)Nc3ccccc3Cl)CC2)c1`, which Potency is on record?
**A.** inactive

**Q.** Which Potency does the source give for `Cc1[nH]n(-c2ccccc2)c(=O)c1N=Nc1c(O)cc(S(=O)(=O)N(C)C)c2ccccc12` here?
**A.** inconclusive: 0.112 µM [inhibitor, full curve, poor fit]

**Q.** With `O=C(CC1C(=O)NCCN1C(=O)Nc1ccccc1)Nc1ccc(F)cc1` (centres undefined) as the compound, how does the Potency read?
**A.** inconclusive: 3.98 µM [inhibitor, single point]

**Q.** With `Cc1ccc(Cl)cc1N1CCN(C(=O)CSc2ccsc2[N+](=O)[O-])CC1` as the compound, how does the Potency read?
**A.** inactive

**Q.** With `COc1cc(NC(C)=O)c2ncccc2c1[N+](=O)[O-]` as the compound, how does the Potency read?
**A.** inactive

**Q.** With `COc1ccccc1C(=O)N/C(=C/c1ccco1)C(=O)Nc1cccc(C(=O)O)c1` as the compound, how does the Potency read?
**A.** inactive

**Q.** Which Potency does the source give for `CCOC(=O)c1cnc2c(ccc3ccccc32)c1Nc1ccccc1O` here?
**A.** inconclusive: 6.31 µM [inhibitor, single point]

**Q.** Which Potency does the source give for `CCOC(=O)Cc1cc(=O)[nH]n(-c2ccccc2)c1=O` here?
**A.** inactive

**Q.** Which Potency does the source give for `O=c1ccccn1CCOc1ccccc1Cl` here?
**A.** inactive

**Q.** Which Potency does the source give for `COc1ccc(-c2noc(CN(C(=O)c3ccc(C)cc3C)C(C)C)n2)cc1` here?
**A.** inconclusive: 12.6 µM [inhibitor, partial curve, poor fit]

**Q.** With `CCN(C(=O)c1c(C)oc2ncnc(N3CCCCC3)c12)c1cc(C)ccc1C` as the compound, how does the Potency read?
**A.** inactive

**Q.** Which Potency does the source give for `Cc1ccn2c(=O)c(NC(=O)c3cccs3)c(C)nc2c1` here?
**A.** inactive

**Q.** With `Cc1ccc(NC(=O)CN2C(=O)N/C(=C/c3ccco3)C2=O)cc1` as the compound, how does the Potency read?
**A.** inconclusive: 6.31 µM [inhibitor, single point]

**Q.** With `COc1ccc2c(CNC3CCC(C)CC3)c(C(=O)O)n(Cc3ccc(F)cc3)c2c1` (centres undefined) as the compound, how does the Potency read?
**A.** inconclusive: 35.5 µM [inhibitor, partial curve, poor fit]

**Q.** Which Potency does the source give for `CC[n+]1ccc(/C=C2\Sc3ccccc3N2CCCS(=O)(=O)[O-])c2ccccc21` here?
**A.** inconclusive: 35.5 µM [inhibitor, single point]

**Q.** For `O=C(CSc1ccc(-c2ccccc2)nn1)Nc1ccc2c(c1)OCCO2`, which Potency is on record?
**A.** inconclusive: 35.5 µM [inhibitor, single point]

**Q.** With `Cc1cc(=O)n2nc(N3CCC(C(=O)Nc4ccc(Br)c(C)c4)CC3)sc2n1` as the compound, how does the Potency read?
**A.** inconclusive: 0.112 µM [inhibitor, full curve, poor fit]

**Q.** With `Cc1cccc(OCCNC(=O)c2cncc(Br)c2)c1` as the compound, how does the Potency read?
**A.** inconclusive: 35.5 µM [inhibitor, single point]

**Q.** For `Cc1ccccc1N1CC(C(=O)Nc2ccc(S(=O)(=O)NCC3CCCO3)cc2)CC1=O` (centres undefined), which Potency is on record?
**A.** inconclusive: 7.08 µM [inhibitor, partial curve, poor fit]

**Q.** With `CN(c1ccc(OCC(=O)OCC(=O)NCc2ccco2)cc1)S(=O)(=O)c1ccc2ccccc2c1` as the compound, how does the Potency read?
**A.** inconclusive: 15.8 µM [inhibitor, single point]

**Q.** With `COc1ccc(CNC(=O)c2cc(-c3ccccc3O)n[nH]2)cc1` as the compound, how does the Potency read?
**A.** inconclusive: 35.5 µM [inhibitor, single point]

**Q.** For `CC1CCCN(c2ccc(C(=O)Nc3cccnc3)cc2[N+](=O)[O-])C1` (centres undefined), which Potency is on record?
**A.** inactive

**Q.** With `O=C(CSC1=NCCN1)Nc1ccccc1[N+](=O)[O-]` as the compound, how does the Potency read?
**A.** inactive

**Q.** Which Potency does the source give for `Cc1cccc(Nc2nc(-c3ccccc3)nc3ccccc23)c1` here?
**A.** inconclusive: 7.08 µM [inhibitor, partial curve, poor fit]

**Q.** With `CC(C)Cn1c(O)c(N=NC(=O)c2cccc(S(=O)(=O)N3CCCCC3)c2)c2ccccc21` as the compound, how does the Potency read?
**A.** inconclusive: 3.98 µM [inhibitor, single point]

**Q.** With `Cc1onc(-c2c(F)cccc2Cl)c1C(=O)NCc1ccccn1` as the compound, how does the Potency read?
**A.** inactive

**Q.** For `O=C(Nc1cccc(S(=O)(=O)N2CCCCCC2)c1)C1CCN(C(=O)c2ccc(F)cc2)CC1`, which Potency is on record?
**A.** inconclusive: 35.5 µM [inhibitor, single point]

**Q.** Which Potency does the source give for `CCC(CC)C(=O)N(C)c1c(C)nc2c(OCc3cc(Cl)cc(Cl)c3)cccn12` here?
**A.** active: 12.6 µM

**Q.** With `Cc1nc(NC(=O)c2ccccc2)sc1C1(C)CC(c2ccccc2F)=NO1` (centres undefined) as the compound, how does the Potency read?
**A.** inactive

**Q.** For `CCOc1ccc(CNC(=O)c2cc3c(=O)oc4ccc(C)cc4c3s2)cc1`, which Potency is on record?
**A.** inactive
